PubChem BioAssay AID1346428 (National Center for Advancing Translational Sciences (NCATS), 2018)
Where “and” joins values, the source holds several entries; their conditions need not be identical. Equal entries are not always repeated. Among all 48,000 compounds or so, about 1,200 (2.5%) were called active. Another 2% or so got no clear call; they are omitted.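 The calls were made as follows: active = activation of at least 60% and not above a set upper limit (about 1 call in 100 departs from these limits); inconclusive = activation of 40% to 60%, or above that upper limit; inactive = activation under 40%.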 This is one part of the list.
Also: 0% is about no effect.

The compounds below were run against Probable G-protein coupled receptor 32 (Homo sapiens) (UniProt O75388) (assay: qHTS for Agonists of Human Resolvin D1 Receptor DRV1). Details: CHO-K1 GPR32 beta-arrestin PathHunter luminescence, 90 min; at 76.9 µM; hits give high values; zero percent set by DMSO-only wells.
Chain of UniProt O75388 (O75388 whole entry, looked up): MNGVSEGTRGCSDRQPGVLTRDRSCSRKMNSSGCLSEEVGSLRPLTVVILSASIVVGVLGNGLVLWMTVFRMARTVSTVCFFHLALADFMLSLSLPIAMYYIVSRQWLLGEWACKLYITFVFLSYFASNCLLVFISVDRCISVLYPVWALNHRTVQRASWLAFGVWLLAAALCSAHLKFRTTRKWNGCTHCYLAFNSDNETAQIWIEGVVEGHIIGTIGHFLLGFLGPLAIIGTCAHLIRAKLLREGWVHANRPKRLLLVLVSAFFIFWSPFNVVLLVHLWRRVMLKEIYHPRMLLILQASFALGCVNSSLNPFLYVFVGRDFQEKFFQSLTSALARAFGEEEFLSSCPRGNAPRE
How it was run: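 Luminescent readout of beta-Gal complementation quantifies ligand-induced beta-arrestin association with GPR32 in CHO-K1 cells; 90 min compound incubation at 37 °C, detection 1 h at room temperature.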
With `COc1ccc(C(=O)Nc2nnc(S(=O)(=O)N3CCCCCC3)s2)cc1OC` the activation was inactive: 8.04%. In the case of `CCC(C)n1c(=N)c(C(=O)NCc2ccccc2)cc2c(=O)n3cc(C)ccc3nc21` (centres undefined), the activation is reported as inactive: 2.24%. With `CCOC(=O)c1cc(-c2ccccc2)n(-c2cccc(C(=O)Nc3cccc(F)c3)c2)c1C` the activation was inactive: -31.7%. `CCN(CC)C(=O)/C(C#N)=C/c1cc(O)c(O)c([N+](=O)[O-])c1` was tested, and the activation was inactive: -90.1%. For `COc1ccc(C(=O)c2oc3ccccc3c2NC(=O)COc2ccccc2)cc1`, the activation was inactive: -12.6%. `Cc1ccc(CNC(=O)CCc2c(C)nc3c(c(C)nn3-c3ccccc3)c2C)cc1` was tested, and the activation was inactive: 6.2%. `CCc1cccc(C)c1NC(=O)CC1Oc2ccc(C)cc2NC1=O` (centres undefined) was tested, and the activation was inactive: -7%. With `COc1ccc(CCNC(=O)c2sc3nc4n(c(=O)c3c2C)CCCC4)cc1OC` the activation was inactive: 2.74%. `CC(C)n1c(=N)c(C(=O)NCc2cccnc2)cc2c(=O)n3ccccc3nc21` was tested, and the activation was inactive: -6.67%. `O=C(COc1ccc(Cl)cc1)OCc1cc(=O)n2nc(-c3cccs3)sc2n1` was tested, and the activation was inactive: -7.95%. With `COc1ccc(Cl)cc1NS(=O)(=O)c1cc(Br)cc2c1N(C(=O)C1CC1)CC2` the activation was inactive: -1.59%. For `CCCS(=O)(=O)c1c(S(=O)(=O)CCC)c2cc(CC)ccn2c1C(=O)c1ccc(OC)cc1`, the activation was inactive: 23.4%. With `COc1ccc(CCNC(=O)c2cnc3ccc(C)cn3c2=O)cc1` the activation was inactive: 5.2%. `CCOc1ccc(NC(=O)N2CCC(C(N)=O)(N3CCCCC3)CC2)cc1` was tested, and the activation was inactive: -12.5%. With `COc1cccc(Cn2nnc(C(=O)Nc3cc(C)ccc3C)c2N)c1` the activation was inactive: 7.94%. For `CC(C)CS(=O)(=O)c1oc(-c2ccc(F)cc2)nc1S(=O)(=O)c1ccccc1`, the activation was inactive: -0.334%. In the case of `O=C(NC1CC(=O)N(c2cccc(F)c2)C1)c1ccc(S(=O)(=O)N2CCCC2)cc1` (centres undefined), the activation is reported as inactive: -6.09%. `O=C(Cn1c(=O)n(Cc2ccccc2)c(=O)c2sc3ccccc3c21)NCc1ccccc1Cl` was tested, and the activation was inactive: 0.665%. With `O=C(CCc1nc(-c2cccs2)no1)Nc1ccccc1[N+](=O)[O-]` the activation was inactive: -0.632%. `Cc1ccn2c(=O)c(C(=O)NCCc3ccccc3)c(O)nc2c1` was tested, and the activation was inactive: -20.8%. `CCOc1ccccc1CNC(=O)Cn1c(-c2ccccc2)cc(C(C)=O)c1C` was tested, and the activation was inactive: -6.28%. For `Cc1ccc2nc(NC(=O)CSc3nccn3Cc3ccc(Cl)cc3)sc2c1`, the activation was inactive: -13.9%. `CCN(CC)c1cc(C)c2cc(NC(=O)c3cccc(F)c3)ccc2n1` was tested, and the activation was active: 92.4%. In the case of `CSc1ccc(CCNC(=O)c2cnn(-c3ccccc3)c2-n2cccc2)cc1`, the activation is reported as inactive: -2.99%. For `O=C(Nc1cccc(Cl)c1)N1CCSc2ccccc21`, the activation was inactive: -29.9%. In the case of `Cc1cccc(NC(=O)c2cc(S(=O)(=O)N3CCc4ccccc43)ccc2F)c1C`, the activation is reported as inactive: -19.2%. With `COCCCNC(=O)CS(=O)Cc1nc(-c2cccc(C)c2)oc1C` (centres undefined) the activation was inactive: -4.27%. For `COc1ccc(OC)c(-c2cc(C(=O)NCCc3ccccc3)c3c(-c4ccc(C)cc4)[nH]nc3n2)c1`, the activation was inactive: 17.2%. With `CCOC(=O)c1cnc2c(ccc3ccccc32)c1Nc1ccccc1OCC` the activation was inactive: -8.53%. `COc1ccc(N2CCN(C(=O)C3CCCN(S(=O)(=O)c4ccc5c(c4)CCCN5C(C)=O)C3)CC2)cc1` (centres undefined) was tested, and the activation was inactive: 2.66%. With `CCCn1cc(S(=O)(=O)c2ccccc2)c(=O)c2cc(F)c(N3CCCCC3)cc21` the activation was inactive: -15.9%. `Cc1ccc(N2C(=O)CSC23C(=O)N(CC(=O)NCCc2ccccc2)c2ccccc23)cc1C` (centres undefined) was tested, and the activation was inactive: 0.475%. In the case of `CC(NC(=O)CCCC1=NS(=O)(=O)c2ccccc2N1)c1ccccc1` (centres undefined), the activation is reported as inactive: -6.03%. In the case of `CCOc1ccccc1NC(=O)c1c(NC(=O)COc2ccccc2)sc2c1CCCCC2`, the activation is reported as inactive: -2.03%. With `C[C@@H](O)[C@H]1C(=O)N2C(C(=O)O)=C(S[C@@H]3CN[C@H](C(=O)N(C)C)C3)[C@H](C)[C@H]12` the activation was inactive: -0.154% and inactive: 1.34%. For `COc1ccc(NC(=O)CC2C(=O)N(c3ccc(F)cc3)C(=O)N2Cc2ccc3c(c2)OCO3)cc1` (centres undefined), the activation was inactive: -18.8%. `COc1ccc(-c2c(C)nn3c(N4CCN(c5ccccc5)CC4)cc(C)nc23)cc1OC` was tested, and the activation was inactive: -38%. With `COc1ccc(/C=C(/C#N)c2nc(-c3ccc(-c4ccccc4)cc3)cs2)cc1OC` the activation was inactive: 15%. `CCCn1c(=N)c(C(=O)NC2CCCC2)cc2c(=O)n3cccc(C)c3nc21` was tested, and the activation was inactive: 5.51%. In the case of `Cc1noc(C)c1S(=O)(=O)Nc1ccc(C(=O)Nc2ccc(Br)cc2)cc1`, the activation is reported as active: 95.4%. For `CCc1cccc(C)c1NC(=O)c1cc(S(=O)(=O)N2CCOCC2)cn1C`, the activation was inactive: -5.9%. With `CCOC(=O)c1ccccc1NC(=O)n1ncc2cc(Cl)ccc21` the activation was inactive: 0.388%. For `COc1cc(NC(=O)CCn2cnc3ccccc3c2=O)cc(OC)c1`, the activation was inactive: -7.8%. For `CCOc1cccc(C(=O)Nc2ccc3oc(-c4cccnc4)nc3c2)c1`, the activation was active: 107%. For `COc1ccc(OCCn2c(C)nc3cc(C)c(C)cc32)cc1`, the activation was inactive: -5.87%. `CCCCSCCCNC(=O)c1cn(CC)c2ccc(S(=O)(=O)N3CCCCCC3)cc2c1=O` was tested, and the activation was inactive: -9.53%. With `CCCCOc1ccc(CNC(=O)c2cc3n(n2)CCCN(Cc2ccc(C)cc2)C3=O)cc1` the activation was inactive: 3.28%. With `CNC(=O)C1CCC(Cn2c(=O)c3sccc3n(CC(=O)NCc3cccc(OC)c3)c2=O)CC1` (centres undefined) the activation was inactive: -12.8%. For `Cc1cccc(-c2nc3scc(CCNC(=O)c4ccc(Br)o4)n3n2)c1`, the activation was inactive: -21.5%. In the case of `CCC(CC)C(=O)Nc1ccc(-c2cn3cccnc3n2)cc1`, the activation is reported as inactive: 27.9%. `COc1ccc(CCNC(=O)CCc2c(C)nc3cc(-c4ccccc4OC)nn3c2C)c(OC)c1` was tested, and the activation was inactive: -8.81%. For `CCOC(=O)N1CCN(c2ncc3c(n2)CC(c2ccccc2O)CC3=O)CC1` (centres undefined), the activation was active: 76.4%. In the case of `COc1ccc(/C=C\c2onc(C)c2S(=O)(=O)N2CCC(C(=O)Nc3cccc(Cl)c3)CC2)cc1`, the activation is reported as inactive: -10.4%. For `COc1ccccc1NC(=O)CSc1nnc2c3ccccc3n(C(C)C)c2n1`, the activation was inactive: -44.3%. With `CCCCCCCC/C=C\CCCCCCCC(=O)NCCO` the activation was inactive: -8.24%. With `COc1ccc(CNC(=O)CN2C(=O)COc3ccc(S(=O)(=O)NC4CCCC4)cc32)cc1` the activation was inactive: -3.92%. For `COc1cccc(C(=O)N2CCc3c([nH]c4ccccc34)C2c2ccc(SC)cc2)c1` (centres undefined), the activation was inactive: -31.7%. `Cc1ccc(Nc2nnc(-c3cc4c(ccc5ccccc54)oc3=O)s2)cc1` was tested, and the activation was inactive: 0.479%. For `COc1cccc(CNC(=O)CCCN2C(=O)CCn3nc(-c4cccn4C)cc32)c1`, the activation was inactive: -11.1%. `CCOc1ccc(CCNC(=O)c2csc3c2CCCCC3)cc1` was tested, and the activation was inactive: 3.74%. For `CCn1c(=O)c2cc(C(=O)N(CC(C)C)CC(C)C)sc2c2ccccc21`, the activation was inactive: -7.3%. With `CCOC(=O)c1cccc(NC(=O)Cn2c(=O)nc(-c3ccccc3F)c3cc(Cl)ccc32)c1` the activation was inactive: -15.5%. `Cc1ccc(CNc2ncnc3c2nc2n3CCCC2)cc1` was tested, and the activation was inactive: 3.93%. With `CCOC(=O)c1ccc(NC(=O)CN2c3ccccc3S(=O)(=O)c3ccccc32)cc1` the activation was inactive: -8.95%. `CCOC(=O)c1cc(-c2ccccc2)n(CCC(=O)NC2CCCCC2)c1C` was tested, and the activation was inactive: -18.9%. In the case of `Cc1ccc2nc(CSc3nnc(NC(=O)c4cccc(Br)c4)s3)cc(=O)n2c1`, the activation is reported as inactive: 1.86%. `CCN(C(=O)CSc1nc2ccccc2n1CC(=O)NCc1ccc(OC)cc1)c1ccccc1` was tested, and the activation was inactive: -3.67%. With `CCc1ccc(-n2c(-c3ccccc3)c(C)n3c4c(=O)n(C)c(=O)n(C)c4nc23)cc1` the activation was inactive: -8.98%. For `COc1cccc(N2C(=O)N(CC(=O)NCc3cccc(OC)c3OC)c3ccccc3S2(=O)=O)c1`, the activation was inactive: -0.608%. With `Cc1ccc2cccc(NC(=O)c3ccc(-c4ccc(Br)cc4)o3)c2n1` the activation was inactive: 0.332%. In the case of `Cc1cc(=O)c2cc(C(=O)Nc3ccccc3)ccc2[nH]1`, the activation is reported as inactive: 1.8%. For `CCc1ccccc1Nc1ncnc2c1nc1n2CCCC1`, the activation was inactive: -11.9%. With `COc1cccc(C2C(C(=O)Nc3ccccc3OC)=C(C)Nc3nc4ccccc4n32)c1` (centres undefined) the activation was inactive: 20%. In the case of `NS(=O)(=O)c1ccc(CCNC(=O)c2nc(SCc3ccccc3F)ncc2Cl)cc1`, the activation is reported as active: 82.6%. In the case of `O=C(CSc1nnc(CNC(=O)c2ccccc2)n1-c1cccc(Cl)c1)Nc1ccccc1F`, the activation is reported as inactive: -17.5%. With `COc1ccc2oc(=O)c(C(=O)NCCc3c(C)[nH]c4ccc(Br)cc34)cc2c1` the activation was inactive: -5.18%. For `CC(=O)O[C@H]1C[C@@H]2CC[C@@H]3[C@H](CC[C@@]4(C)[C@H]3C[C@H]([N+]3(C)CCCCC3)[C@@H]4OC(C)=O)[C@@]2(C)C[C@@H]1N1CCCCC1`, the activation was inactive: 10.1%. In the case of `O=C(Nc1ccc(F)cc1)c1cccn1-c1nnc(N2CCCCC2)s1`, the activation is reported as inactive: -27.5%. In the case of `CCOC(=O)c1c(C)oc2nc(C)nc(N3CCN(c4ccccc4)CC3)c12`, the activation is reported as inactive: -12.2%. `COc1ccccc1N1CCN(C(=O)CCS(=O)(=O)c2cc(Br)cc3c2N(C(=O)C2CC2)CC3)CC1` was tested, and the activation was inactive: -4.74%. With `CCCNC(=O)c1cnc2sc(N3CCCCC3)nn2c1=O` the activation was inactive: 9.49%. In the case of `Cc1cn2c(=O)cc(COc3ccccc3NC(=O)c3ccccc3C)nc2s1`, the activation is reported as inactive: 3.56%. For `Cc1ccc(-c2csc(/C(C#N)=C/c3ccccc3Cl)n2)cc1`, the activation was inactive: -14.8%. In the case of `O=C(NCc1cccc(F)c1)C1CCN(C(=O)c2sccc2-n2cccc2)CC1`, the activation is reported as inactive: -4%.
